Hit rate of the full screen: of about 390,000 compounds, about 4,700 (1.2%) were called active. This list was built around the results that the source calls inconclusive (neither active nor inactive); the mix of calls is not that of the screen. Calls follow the shape of the dose curve; as a rule, active = well fitted inhibition curve with a large enough effect; inconclusive = small, poorly fitted or top-dose-only effect, or another doubt; inactive = no such curve, though single readings can be large or run the other way. Potencies beside an inconclusive call are fits to weak or partial responses and may not hold up.
biological target: DNA polymerase eta (Homo sapiens) (UniProt Q9Y253); test: qHTS for Inhibitors of Polymerase Eta; settings: recombinant Pol eta, fluorescent DNA replication assay; series mostly up to 114 µM
Summary of the method: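 Fluorescent replication assay: 50 nM final substrate added after a 15 min room-temperature compound preincubation with 10 nM enzyme. Signal taken at 0 min and again at 10 min.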
Potency is read from the fitted curve at half-maximal effect; tags tell the direction and shape of the fitted curve.

Sequence of UniProt Q9Y253 (Q9Y253 whole entry, looked up): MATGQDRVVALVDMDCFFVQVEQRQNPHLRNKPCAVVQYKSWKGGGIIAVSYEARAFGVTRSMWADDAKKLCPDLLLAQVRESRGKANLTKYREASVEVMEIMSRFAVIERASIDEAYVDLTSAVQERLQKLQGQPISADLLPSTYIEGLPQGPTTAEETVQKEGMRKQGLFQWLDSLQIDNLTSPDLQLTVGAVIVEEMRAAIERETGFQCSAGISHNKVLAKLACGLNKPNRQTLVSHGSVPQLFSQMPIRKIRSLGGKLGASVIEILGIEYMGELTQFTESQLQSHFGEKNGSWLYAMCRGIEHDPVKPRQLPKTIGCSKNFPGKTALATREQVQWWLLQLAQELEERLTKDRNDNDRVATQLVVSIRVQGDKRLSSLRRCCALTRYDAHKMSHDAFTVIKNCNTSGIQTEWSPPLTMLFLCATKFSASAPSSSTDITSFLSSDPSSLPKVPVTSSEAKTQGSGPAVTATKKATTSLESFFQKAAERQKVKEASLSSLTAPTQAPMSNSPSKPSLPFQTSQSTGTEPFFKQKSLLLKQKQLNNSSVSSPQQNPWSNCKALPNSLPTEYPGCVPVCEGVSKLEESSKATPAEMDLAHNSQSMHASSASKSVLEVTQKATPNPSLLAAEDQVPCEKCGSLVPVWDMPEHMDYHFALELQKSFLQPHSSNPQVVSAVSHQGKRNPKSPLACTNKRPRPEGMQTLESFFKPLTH

SMILES | Potency
Cn1cc(Br)c(C(=O)Nc2ncc(Br)s2)n1 | inconclusive: 25.1 µM [inhibitor, partial curve, poor fit]
O=[N+]([O-])c1ccc2nnn(O)c2c1 | inconclusive: 28.2 µM [inhibitor, single point]
Cc1ccc(-c2cc(-c3ccco3)c3c(N)c(C(=O)NN)oc3n2)cc1 | inconclusive: 15.8 µM [inhibitor, partial curve, poor fit]
CCc1nnc(NS(=O)(=O)c2ccc(NC(=S)NC(=O)/C=C/c3ccccc3)cc2)s1 | active: 70.8 µM
COc1ccc(S(=O)(=O)NCC(=O)N(CC(=O)NCC2CCCO2)Cc2ccccc2)cc1 (stereo unspecified) | inconclusive: 89.1 µM [inhibitor, partial curve, poor fit]
O=C(COC(=O)c1cccc(OC(F)F)c1)Nc1ncccn1 | inconclusive: 31.6 µM [inhibitor, single point]
C#CCOCCOCCOCCNc1nc(N2CCN(C(=O)Cn3cc(CCCN=C(N)N)nn3)CC2)nc(N2CCN(C(=O)[C@H]([C@@H](C)CC)n3cc(CCCCN)nn3)CC2)n1 | inactive
CCOc1cccc(/C(O)=C2/C(=O)C(=O)N(CCOC)C2c2ccco2)c1 (stereo unspecified) | inconclusive: 17.8 µM [inhibitor, full curve, poor fit]
CC1=C(C(=O)Nc2cccnc2)C(c2cccc(O)c2)n2nc(SCc3ccccc3)nc2N1 (stereo unspecified) | inconclusive: 89.1 µM [inhibitor, partial curve]
CC(Sc1ccsc1[N+](=O)[O-])C(=O)NCc1ccco1 (stereo unspecified) | active: 39.8 µM
CC1CCCN(S(=O)(=O)c2cc(C(=O)NCCc3ccc(S(N)(=O)=O)cc3)ccc2Cl)C1 (stereo unspecified) | inconclusive: 89.1 µM [inhibitor, partial curve, poor fit]
CC1CCC2(CC1)NC(=O)N(CC(=O)c1ccc(Cl)s1)C2=O (stereo unspecified) | inconclusive: 35.5 µM [inhibitor, single point]
Cc1c(C)c2cc(Cl)c(O)c(CN(C)C)c2oc1=O | inactive
COc1ccc(S(=O)(=O)CC(=O)c2cc3cc(Br)ccc3oc2=O)cc1 | active: 28.2 µM
COc1ccc(CNC(=O)c2cc(C)nn2-c2ccccc2)cc1 | inconclusive: 89.1 µM [inhibitor, partial curve, poor fit]
O=C1c2cc(O)c(O)cc2OC(c2ccc(O)c(O)c2)C1O (stereo unspecified) | active: 14.1 µM
COc1ccc(S(=O)(=O)c2c(Nc3ccc(C)cc3)sc(C(=O)c3ccc(C)cc3)c2N)cc1 | inactive
OCCN1CCN(c2nc(-c3ccccc3)nc3c2oc2ccccc23)CC1 | inconclusive: 20 µM [inhibitor, partial curve, poor fit]
Cc1cc(-n2c(C)c3c(C)nnc(C)c3c2C)ccc1N | inconclusive: 25.1 µM [inhibitor, full curve]
Nc1ccc(-c2nc3ccc(-c4nc5ccc(N)cc5[nH]4)cc3[nH]2)cc1 | active: 6.31 µM
O=C(COC(=O)c1ccc(S(=O)(=O)NCc2ccco2)cc1)NCCC1=CCCCC1 | inconclusive: 15.8 µM [inhibitor, full curve, poor fit]

SMILES | Potency
COc1cc(NC(=O)c2cc(-c3ccco3)on2)cc(OC)c1OC | inactive
COc1cc(/C=C2\SC(=O)N(CC(=O)Nc3ccc(C)cc3)C2=O)cc(Cl)c1OCC(=O)O | inconclusive: 8.91 µM [inhibitor, full curve, poor fit]
COc1ccccc1OCC(=O)Nc1sc2c(c1C(N)=O)CCC2 | inconclusive: 15.8 µM [inhibitor, full curve, poor fit]
C[C@H]1CN([C@@H](C)CO)C(=O)Cc2cc(NC(=O)C3CC3)ccc2O[C@H]1CN(C)Cc1ccc(Oc2ccccc2)cc1 | inconclusive: 79.4 µM [inhibitor, partial curve, poor fit]
COc1cccc(OCCn2c(C)c(/C=N/n3cnnc3)c3ccccc32)c1 | inconclusive: 39.8 µM [inhibitor, partial curve, poor fit]
N#C/C(=C/c1ccc(O)c(O)c1)C(=O)NCc1ccc(Cl)cc1 | inconclusive: 15.8 µM [inhibitor, partial curve]
Nc1ccc(Cn2ccc3c4c(N)nc(N)nc4ccc32)cc1 | inconclusive: 56.2 µM [inhibitor, partial curve, poor fit]
CN(C)c1ccc(/C=C/C(=O)c2cccc(Br)c2)cc1 | inactive
CC(=O)Nc1ccc(NC(=O)CN2C(=O)NC3(CCCCCCC3)C2=O)cc1 | inconclusive: 0.794 µM [inhibitor, partial curve, poor fit]
Cc1ccc2cc(C(c3nnnn3Cc3ccccc3)N3CCc4ccccc43)c(=O)[nH]c2c1C (stereo unspecified) | inconclusive: 35.5 µM [inhibitor, single point]
CC(C)CNC(=O)N[C@@H](CC(C)C)C(=O)O | inconclusive: 89.1 µM [inhibitor, single point]
O=C(Cn1cncc1-c1ccc([N+](=O)[O-])cc1)Nc1cccc2ccccc12 | inconclusive: 3.16 µM [inhibitor, full curve, poor fit]
Cc1ccn2c(=O)nc(SCC(=O)N3CCC(C)CC3)nc2c1 | inconclusive: 31.6 µM [inhibitor, single point]
Cc1ccc(S(=O)(=O)N2CCN(C(=O)COC(=O)c3ccc([N+](=O)[O-])o3)CC2)c(C)c1 | inconclusive: 89.1 µM [inhibitor, single point]
NS(=O)(=O)c1ccc(CCNC(=O)c2cc3ccccc3s2)cc1 | active: 28.2 µM
CC(C)(C)n1nnnc1SCC(=O)Nc1nn(-c2ccccc2)nc1C(N)=O | inactive
COCCCNC(=O)CSc1ccsc1[N+](=O)[O-] | active: 44.7 µM
COc1ccc(C=NNc2ccc(S(=O)(=O)Nc3ccccc3C(=O)O)cc2[N+](=O)[O-])c(OC)c1 | active: 50.1 µM
O=C(N/N=C/c1cccc([N+](=O)[O-])c1)C1CC(=O)N(c2ccc(Br)cc2)C1 (stereo unspecified) | inactive
O=C(COC(=O)c1n[nH]c2ccccc12)NC(=O)NC12CC3CC(CC(C3)C1)C2 | inconclusive: 15.8 µM [inhibitor, partial curve, poor fit]
